Test results as given in the supplement of paper PMC4723716.
± gives the standard deviation of the averaged measurements. The full ranking holds about 3,600 compounds; the median of “viability index relative to DMSO control” is about 0.81, and the lowest 2% start at about 0.13. Some of the results follow.

The compounds below were run on Plasmodium falciparum NF54 stage V gametocytes (assay: viability index relative to DMSO control (fraction); higher = less gametocyte killing). Conditions: 1.25 µM, incubation time: 72 h.
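Note: 384-well serum-free SaLSSA: MitoTracker Red CMXRos staining with saponin lysis, high-content imaging, treated-well particle count divided by plate-mean count of DMSO wells.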

Compound | viability index
O=[N+]([O-])c1ccc(S(=O)(=O)N2CCN(C(=S)NCc3ccccc3)CC2)cc1 | 0.163
Oc1ccccc1-c1nc2ncccn2c1Nc1cccc(C(F)(F)F)c1 | 0.924
Brc1ccc(Nc2nc(NCc3ccco3)c3ccccc3n2)cc1 | 0.601
CCOCCCNc1nc2cc(OC)c(OC)cc2c2nc(-c3ccccc3)nn12 | 0.675
Cc1cccc(N2C(N)=NC(N)=NC2(C)C)c1 | 1.07
CCOc1ccc(C(=O)C(C)[n+]2cc(-c3ccc(OC)cc3)n3c2CCC3)cc1 (stereo not drawn) | 1
CCOc1ccc(C2C(=O)N(C3CCCCC3)CC(=O)N2Cc2ccc(F)cc2)cc1OC (stereo not drawn) | 0.66
FC(F)(F)c1cccc(NC(=S)N2CCCC2c2ccccc2Cl)c1 (stereo not drawn) | 0.536
CCOC(=O)c1cnc2c(C)cc(Cl)cc2c1Nc1ccc(OC)c(OC)c1 | 0.697
CCCCOc1cccc(C(=O)N(Cc2cccs2)c2ccc(OC)cc2)c1 | 0.53
CN(CCCNc1ccnc2cc(Cl)ccc12)C(=O)c1ccc(C(F)(F)F)cc1 | 0.72
CCC(=O)NNc1cc(N2CCCC2)nc(N2CCCC2)n1 | 0.928
Nc1c(C(=O)Nc2ccc(F)cc2)sc2nc3c(c(-c4cccs4)c12)CCCC3 | 0.768
O=C(CC1N=C2c3ccccc3N=C(SCc3cccc(F)c3)N2C1=O)NCc1cccs1 (stereo not drawn) | 0.667
CCc1nc(N)nc(N)c1-c1ccc(Cl)cc1 | 0.462
Cc1cc(C=C2SC(=Nc3ccccc3)NC2=O)c(C)n1-c1cccc([N+](=O)[O-])c1 | 0.479
COc1ccc2c(c1)c(C)cc[n+]2Cc1ccccc1 | 0.828
N=c1c2c(n(Cc3ccc(Cl)cc3)c3c1CCC3)CCC2 | 0.493
COc1ccc(CCN2C(=O)N(CC(C)C)C(=O)C23CCN(Cc2ccccc2O)CC3)cc1 | 0.952
CCC(C)(C)c1ccc(Oc2ccc(NC(=O)c3ccc([N+](=O)[O-])o3)cc2)cc1 | 0.362
c1ccc([B-](c2ccccc2)(c2ccccc2)c2ccccc2)cc1 | 0.695 ± 0.011
CCN1CCN(Cc2c(O)ccc3c(=O)c(Oc4cc(C)cc(C)c4)c(C(F)(F)F)oc23)CC1 | 0.606

Compound | viability index
CCOc1ccc2ncc(S(=O)(=O)c3ccc(OC)cc3)c(N3CCN(C)CC3)c2c1 | 0.855
CCC(C)NC(=O)c1nn(-c2cccc(OC)c2)c(=O)c2ccccc12 (stereo not drawn) | 1.01
O=c1c(=Cc2ccc(-c3ccc([N+](=O)[O-])cc3Cl)o2)sc2nc3ccccc3n12 | 0.699
CN1C(=O)N(C)C2(c3ccccc3)NN3C(=NC12c1ccccc1)SC1=C3C(=O)c2ccccc2C1=O (stereo not drawn) | 0.0309
CCc1cc2c(Nc3ccncc3)ncnc2s1 | 0.812
Cc1ccc(-[n+]2c(-c3ccccc3)cn3c2CCCCC3)cc1 | 0.812
CC[n+]1c(C=Cc2ccc(OC)cc2)ccc2ccccc21 | 0.415
COc1cc(OC)c(NC(=O)C2c3ccccc3C(=O)N(C)C2c2ccc(OC)c(OC)c2)cc1Cl (stereo not drawn) | 0.398
COc1ccc(C2C(C(=O)Nc3cccc(Cl)c3)c3ccccc3C(=O)N2C2CCCCC2)cc1 (stereo not drawn) | 0.719
c1ccc(C[n+]2ccc(-c3nc4ccccc4s3)cc2)cc1 | 0.732
COc1ccc(NC(=O)c2cc3cc(C4(O)CCN(Cc5cc6ccccc6[nH]5)CC4)ccc3o2)cc1 | 0.856
O=C(Nc1ccc(-c2nc3cc(NC(=O)C(c4ccccc4)c4ccccc4)ccc3[nH]2)cc1)C(c1ccccc1)c1ccccc1 | 0.908
COC(=O)c1c(NC(=O)c2ccc(S(=O)(=O)N3CCOCC3)cc2)sc2c1CCN(C(C)=O)C2 | 0.76
COc1ccc(C2N(Cc3ccccc3)c3ccccc3N2Cc2ccccc2)cc1 | 0.963
O=C(CN(CCN1CCOCC1)S(=O)(=O)c1ccccn1)N1CCN(C(c2ccccc2)c2ccccc2)CC1 | 0.637
COc1cc(NC(=O)Cc2ccccc2OC)cc(OC)c1 | 0.873
COc1ccc(-c2cc(C(F)(F)F)n3ncc(C(=O)Nc4cccc(Cl)c4Cl)c3n2)cc1OC | 0.783
COc1ccc(C2CC(=O)C3=C(C2)NC(C)=C(C(=O)OC2CCCC2)C3c2ccc(F)cc2)cc1OC (stereo not drawn) | 0.382
OCCCCCCCCCCC[n+]1ccccc1 | 0.779
CCC(=O)N1CCc2cc(S(=O)(=O)N3CCN(c4cccc(C(F)(F)F)c4)CC3)ccc21 | 0.932
COCCn1nnnc1C(c1cc2cc3c(cc2[nH]c1=O)OCCO3)N1CCC(O)CC1 (stereo not drawn) | 0.884
O=C(NCC1(c2ccccc2)CCCC1)C(=O)Nc1nncs1 | 1.16

Compound | viability index
O=C(Nc1cccc(OC(=O)c2ccc([N+](=O)[O-])cc2)c1)c1ccc([N+](=O)[O-])cc1 | 0.842
COc1cc(C2CC(=O)NC(C)=C2C(=O)OC(C)C)c(OC)cc1Br (stereo not drawn) | 0.718
COc1ccc2ccccc2c1C1NC(SCc2ccc(F)cc2)=NC(C)=C1C(C)=O (stereo not drawn) | 0.679
CCOC(=O)C1=C(C)NC2=C(C(=O)CC(c3ccc(Cl)cc3)C2)C1c1ccccc1Cl (stereo not drawn) | 0.774
Cc1cc(N2CCN(CC=Cc3ccccc3)CC2)n2c(nc3ccccc32)c1C#N | 0.703
COc1ccc(S(=O)(=O)ON=C2C=C(C(C)C)C(=O)C=C2C)cc1 | 0.584
CCN(c1ccc(OC)cc1)S(=O)(=O)c1ccc(C)cc1 | 0.857
CCN(CC)S(=O)(=O)c1cc(C(=O)O)ccc1Cl | 0.971
CCOC(=O)c1nnn(-c2nonc2N)c1-c1ccc(C)cc1 | 0.618
O=C(Nc1ccon1)c1cc(-c2cccnc2)nc2ccc(Br)cc12 | 0.78
CCOC(=O)C1=C(C)N(c2ccc(OCC)cc2)C(=O)C1=Cc1ccc(C(C)C)cc1 | 0.475
COc1ccc2nc(C)cc(Nc3ccc(Oc4ccc(Cl)cc4)c(Cl)c3)c2c1 | 0.54
Cc1cc(C)cc(Nc2cc(C)nc3nc(C)nn23)c1 | 1.12
COCCOC(=O)C1=C(C)NC2=C(C(=O)CC(c3ccc(OC)c(OC)c3)C2)C1c1cccc(Cl)c1Cl (stereo not drawn) | 0.857
O=C(NNc1ccccc1F)c1c(F)cccc1Cl | 1.05
Oc1ccc(-c2ccc(F)cc2)cc1CN1CCCCCC1 | 0.47
COC(=O)c1c(-c2c(Cl)cccc2Cl)noc1C=CNc1ccc(Cl)cc1 | 1
CC(=O)N(C1=C(N(C)C)C(=O)c2ccccc2C1=O)c1cc(C)cc(C)c1 | 0.0811
CC(=O)Nc1ccc(S(=O)(=O)Nc2ccccc2[N+](=O)[O-])cc1 | 0.935
N=C(NN=Cc1ccc([N+](=O)[O-])cc1)NN=Cc1ccc([N+](=O)[O-])cc1 | 0.785
CCOC(=O)C1=C(C)NC2=C(C(=O)CC(c3ccc(OC)c(OC)c3)C2)C1c1cccc(Cl)c1Cl (stereo not drawn) | 0.772
Cc1cc(N2CCC(C)CC2)nc2ccc(NC(=O)c3ccc([N+](=O)[O-])o3)cc12 | 0.12

Compound | viability index
CN(C)c1cc[n+](CC(=O)c2cccs2)cc1 | 0.725
COc1ccc2ccccc2c1C1CC(=O)N2CN(Cc3ccco3)CSC2=C1C#N (stereo not drawn) | 0.884
CC(=O)C1=C(O)C(=O)N(c2ccc(Br)cn2)C1c1ccccc1[N+](=O)[O-] (stereo not drawn) | 0.779
CC(C)(C)c1ccc(NC(=O)CN2CCCCC2)cc1 | 0.788
O=C(C[n+]1cc(-c2ccc(Cl)cc2)n2c1CCC2)c1ccc(C2CCCCC2)cc1 | 1.26
COc1cc(OC)cc(C(=O)Nc2cc(C(=O)N3CCC(Cc4ccccc4)CC3)ccc2N2CC3CC(C2)c2cccc(=O)n2C3)c1 (stereo not drawn) | 1.14
Cc1[nH]c2ccccc2c1C=Cc1cc[n+](C)cc1 | 1.08
CCc1ccc(C(=O)C[n+]2cc(-c3ccc(C)cc3)n3c2CCC3)cc1 | 0.978
COc1ccc2c(c1OC)C(=O)N(c1ncc(C)s1)C2 | 0.694
COc1ccccc1N(CN1C(=O)c2ccc(Br)cc2C1=O)C(C)=O | 1.09
CCN(CC)C(=O)COc1ccc(-c2nnc(N3CCCCC3)c3ccccc23)cc1 | 1.28
Cc1c(-c2ccc(Cl)cc2)[n+]2c(n1-c1ccccc1)SCCC2 | 1.39
COc1ccc(C2CC(=O)C3=C(C2)NC(C)=C(C(=O)OC2CCCC2)C3c2ccccc2)cc1 (stereo not drawn) | 0.722
COc1ccc(C(=O)C2CC2c2ccc(Cl)cc2)cc1 (stereo not drawn) | 0.742
O=S(=O)(NCCNc1ncnc2scc(-c3ccccc3)c12)c1ccc(Cl)c(Cl)c1 | 0.554
CCN1C(=Cc2ccc3ccccc3[n+]2CC)C=Cc2ccccc21 | 0.348
S=C(Nc1ccccc1)N1CCCN(c2nc3ccc(Cl)cc3s2)CC1 | 0.747
C(#Cc1ccccc1)C[N+]1(CCOc2ccccc2)CCCCC1 | 0.706
CCCOC(=O)C1=C(C)NC2=C(C(=O)CC(c3ccc(Cl)cc3)C2)C1c1ccc(Cl)cc1 (stereo not drawn) | 0.71
O=c1c(-c2ccc(Cl)cc2Cl)c(C(F)(F)F)oc2c(CN3CCCCC3)c(O)ccc12 | 1
Cc1ccnc(NS(=O)(=O)c2ccc(NC(=O)C(C)C)cc2)n1 | 0.88
CC(=O)N(C1=C(N2CCOCC2)C(=O)c2ccccc2C1=O)c1cc(C)cc(C)c1 | 0.0695
